# Laboratory results reported in PubChem BioAssay AID624260 (Broad Institute, 2012).
# Among all 44,000 compounds or so, about 30 (0.07%) were called active. Inconclusive results, whose numbers are uncertain, are shown with a selection of clear calls. No stated cut-off is given here; in the data, active means inhibition above about 54% (passing the limit was not always enough); inconclusive means no clear call, values can overlap the other calls.
# Target: Histone-lysine N-methyltransferase NSD2 (Homo sapiens) (UniProt O96028)
# Experiment: NSD2 histone methyltransferase activity blockers – biochemical, plate reader, single point, primary screen (AID 624260);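 further: inhibitors reduce the monomethyl H3K36 fluorescence signal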
# Conditions: NSD2-SET H3K36me1 DELFIA fluorescence, at 12.5 µM, active compounds read high
# Sequence of UniProt O96028 (O96028 whole entry, looked up): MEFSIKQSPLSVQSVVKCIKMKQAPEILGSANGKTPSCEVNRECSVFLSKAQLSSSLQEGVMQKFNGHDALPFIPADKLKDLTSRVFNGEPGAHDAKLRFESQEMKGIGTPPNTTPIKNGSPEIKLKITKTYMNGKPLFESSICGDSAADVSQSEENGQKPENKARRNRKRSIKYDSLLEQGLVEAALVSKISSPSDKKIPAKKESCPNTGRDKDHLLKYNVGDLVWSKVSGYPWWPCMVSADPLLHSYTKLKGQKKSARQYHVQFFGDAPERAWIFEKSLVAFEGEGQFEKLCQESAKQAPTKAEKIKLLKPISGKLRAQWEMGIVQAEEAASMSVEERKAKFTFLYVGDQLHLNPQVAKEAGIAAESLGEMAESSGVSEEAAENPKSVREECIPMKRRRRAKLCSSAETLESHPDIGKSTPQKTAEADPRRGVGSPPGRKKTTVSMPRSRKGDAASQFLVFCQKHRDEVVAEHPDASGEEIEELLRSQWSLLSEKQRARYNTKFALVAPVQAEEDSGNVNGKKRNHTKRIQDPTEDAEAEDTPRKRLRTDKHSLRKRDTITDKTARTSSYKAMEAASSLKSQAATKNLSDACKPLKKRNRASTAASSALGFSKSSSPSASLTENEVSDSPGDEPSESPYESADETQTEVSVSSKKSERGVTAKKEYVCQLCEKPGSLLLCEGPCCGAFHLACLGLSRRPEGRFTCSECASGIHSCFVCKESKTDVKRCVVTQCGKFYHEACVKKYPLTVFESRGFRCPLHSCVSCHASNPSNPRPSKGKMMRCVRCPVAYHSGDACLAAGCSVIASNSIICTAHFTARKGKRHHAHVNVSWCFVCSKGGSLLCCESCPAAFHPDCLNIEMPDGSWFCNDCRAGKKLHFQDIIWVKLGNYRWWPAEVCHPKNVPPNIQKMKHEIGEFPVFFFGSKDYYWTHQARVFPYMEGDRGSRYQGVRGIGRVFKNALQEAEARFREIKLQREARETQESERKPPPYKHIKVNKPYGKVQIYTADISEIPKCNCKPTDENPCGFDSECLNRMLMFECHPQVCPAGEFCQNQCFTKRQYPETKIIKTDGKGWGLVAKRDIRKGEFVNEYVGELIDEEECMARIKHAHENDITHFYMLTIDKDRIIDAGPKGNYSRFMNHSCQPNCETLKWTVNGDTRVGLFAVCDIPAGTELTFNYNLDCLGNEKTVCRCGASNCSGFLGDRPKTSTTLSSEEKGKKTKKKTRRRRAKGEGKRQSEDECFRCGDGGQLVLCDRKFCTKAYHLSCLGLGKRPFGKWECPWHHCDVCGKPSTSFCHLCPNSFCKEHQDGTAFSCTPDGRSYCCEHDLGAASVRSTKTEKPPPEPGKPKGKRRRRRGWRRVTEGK
row,Structure (SMILES),inhibition
1,CC(C)NC(=O)Nc1ccc2c(c1)CC(=O)N([C@H](C)CO)C[C@@H](C)[C@H](CN(C)Cc1ccc(C(=O)O)cc1)O2,inactive: -3.2%
2,C[C@@H]1CN([C@H](C)CO)C(=O)c2cc(NS(=O)(=O)c3ccccc3)ccc2O[C@@H](C)CCCCO[C@H]1CN(C)C(=O)c1ccccc1,inconclusive: 77.9%
3,C[C@@H]1CN([C@H](C)CO)C(=O)c2cccc(NS(C)(=O)=O)c2O[C@@H]1CN(C)Cc1ccc2c(c1)OCO2,inconclusive: 60.8%
4,CC(C)NC(=O)N(C)C[C@@H]1Oc2ccc(NC(=O)Nc3ccc(F)cc3)cc2C(=O)N([C@H](C)CO)C[C@H]1C,inactive: 2.48%
5,CC(C)NC(=O)N(C)C[C@@H]1OCCCC[C@@H](C)Oc2ccc(NS(C)(=O)=O)cc2C(=O)N([C@@H](C)CO)C[C@H]1C,inconclusive: 111%
6,C[C@@H]1CN([C@@H](C)CO)C(=O)c2cc(NS(=O)(=O)c3cccs3)ccc2O[C@H]1CN(C)S(=O)(=O)c1cn(C)cn1,inactive: 2.87%
7,COc1cccc(S(=O)(=O)N(C)C[C@@H]2Oc3ncc(-c4cccc(C(=O)N(C)C)c4)cc3C(=O)N([C@H](C)CO)C[C@@H]2C)c1,inactive: 5.93%
8,C[C@@H]1CN([C@@H](C)CO)C(=O)c2cc(-c3ccncc3)cnc2O[C@@H]1CN(C)C(=O)NC1CCCC1,inconclusive: 60.9%
9,C[C@H](CO)N1C[C@H](C)[C@@H](CN(C)C(=O)Nc2ccc(F)cc2)Oc2ccc(NC(=O)Nc3ccc(F)cc3)cc2C1=O,inconclusive: 107%
10,CC(C)NC(=O)Nc1ccc2c(c1)C(=O)N([C@@H](C)CO)C[C@H](C)[C@@H](CN(C)Cc1ccc(C(=O)O)cc1)OCCCC[C@@H](C)O2,inconclusive: 191%
11,C[C@H]1CCCCO[C@H](CN(C)C)[C@@H](C)CN([C@@H](C)CO)C(=O)c2cc(NS(=O)(=O)c3cn(C)cn3)ccc2O1,inconclusive: 85.2%
12,C[C@H]1CN([C@@H](C)CO)S(=O)(=O)c2ccc(-c3ccccc3)cc2O[C@@H]1CN(C)C(=O)c1ccc2c(c1)OCO2,inconclusive: 133%
13,COc1ccc(NC(=O)N(C)C[C@H]2Oc3ncc(C#C[C@@H](C)O)cc3C(=O)N([C@H](C)CO)C[C@H]2C)cc1,inactive: -13%
14,Cc1noc(C)c1NC(=O)N(C)C[C@@H]1OCCCC[C@@H](C)Oc2ccc(NC(=O)c3ccncc3)cc2C(=O)N([C@H](C)CO)C[C@H]1C,inconclusive: 69.3%
15,COc1ccc(NC(=O)Nc2cccc3c2O[C@H](CN(C)C(=O)NC(C)C)[C@H](C)CN([C@H](C)CO)C3=O)cc1,inactive: 4.77%
16,C=C1C(=O)O[C@H]2C1CCC(C)=C1C(=O)C=C(C)[C@@H]12 (stereo partly drawn),inactive: 5.33%
17,CN(C)CC(=O)Nc1ccc2c(c1)[C@H]1C[C@H](CC(=O)NCc3ccncc3)O[C@H](CO)[C@H]1O2,inconclusive: 117%
18,CNC[C@H]1Oc2ccc(NC(=O)NC(C)C)cc2CC(=O)N([C@H](C)CO)C[C@@H]1C,inconclusive: 188%
19,CN1CCN(C(=S)SCC(=O)Nc2nc(=O)c3ccccc3s2)CC1,inactive: -2.41%

row,Structure (SMILES),inhibition
1,C[C@@H]1CCCCO[C@H](CN(C)C(=O)Nc2ccccc2)[C@@H](C)CN([C@@H](C)CO)C(=O)c2cc(NC(=O)Cc3ccccc3)ccc2O1,inconclusive: 106%
2,C[C@H]1CN([C@@H](C)CO)C(=O)c2cc(NC(=O)Cc3ccccc3)ccc2O[C@H]1CN(C)C(=O)Nc1ccccc1,inconclusive: 141%
3,COC(=O)Cn1nnc(-c2nnn(COC(C)=O)c2-c2ccccc2)c1-c1ccccc1,inactive: -2.11%
4,C[C@@H]1CCCCO[C@H](CN(C)C(=O)Nc2ccc3c(c2)OCO3)[C@@H](C)CN([C@H](C)CO)C(=O)c2cc(NC(=O)Nc3ccc4c(c3)OCO4)ccc2O1,inconclusive: 134%
5,C[C@@H]1CN([C@H](C)CO)S(=O)(=O)c2ccc(Br)cc2O[C@@H]1CN(C)Cc1cncnc1,inactive: 1.53%
6,Cc1ccc(-c2ccc3c(c2)O[C@H](CN(C)C(=O)Nc2ccccc2)[C@@H](C)CN([C@@H](C)CO)S3(=O)=O)cc1,inactive: -6.18%
7,CC(CC(N)=O)OC(=O)c1cc(Cl)cc(O)c1O (stereo not drawn),inactive: 9.22%
8,CCCN(C)C[C@@H]1OCCCC[C@H](C)Oc2ccc(NC(=O)NC3CCCCC3)cc2C(=O)N([C@@H](C)CO)C[C@@H]1C,inactive: 2.87%
9,O=C(/C=C/c1ccc(O)cc1)O[C@@H]1CC(O)(C(=O)O)C[C@@H](OC(=O)/C=C/c2ccc(O)cc2)C1O (stereo partly drawn),active: 63%
10,Oc1ccc([C@@H]2Oc3cc(O)cc(O)c3C[C@@H]2O)cc1,inactive: 10.8%
11,C[C@@H]1CCCCO[C@@H](CN(C)S(=O)(=O)c2cn(C)cn2)[C@H](C)CN([C@H](C)CO)C(=O)c2cc(NS(=O)(=O)c3cn(C)cn3)ccc2O1,inconclusive: 84.3%
12,C[C@@H]1CCCCO[C@H](CN(C)CC2CC2)[C@H](C)CN([C@H](C)CO)C(=O)c2cc(NC(=O)NC3CCCCC3)ccc2O1,inconclusive: 74.1%
13,C[C@H]1CN([C@@H](C)CO)C(=O)c2cc(NC(=O)CCC(F)(F)F)ccc2O[C@H]1CN(C)C(=O)Nc1ccccc1,inconclusive: 87.7%
14,O=C(N/N=C/c1cccc2ccccc12)c1ccccc1O,inactive: 3.47%
15,C[C@@H]1CCCCO[C@@H](CN(C)C(=O)C2CCCCC2)[C@H](C)CN([C@@H](C)CO)C(=O)c2cc(N(C)C)ccc2O1,inconclusive: 116%
16,C[C@@H]1CCCCO[C@@H](CN(C)S(=O)(=O)c2cccs2)[C@@H](C)CN([C@H](C)CO)C(=O)c2cc(N(C)C)ccc2O1,inconclusive: 71.5%
17,C[C@H](CO)N1C[C@H](C)[C@@H](CN(C)C(=O)c2ccccc2F)Oc2ncc(-c3cncnc3)cc2C1=O,inconclusive: 56.2%
18,CNC[C@H]1OCCCC[C@@H](C)Oc2ccc(NC(=O)c3ccncc3)cc2C(=O)N([C@H](C)CO)C[C@@H]1C,inconclusive: 122%
19,O=C(COc1ccc2oc3c(c2c1)CCCC3)NCCN1CCOCC1,inactive: 6.12%
